# Measurements reported in the supplement of paper PMC8728848.
# Some of the results follow.
# B1: PX15618A-bth-503-24-503 (Bacteroides thetaiotaomicron) (protein)
# chain: NKSEDKLSGDDFWAQGNETNAEAFLLSIYNSFRNATMSQRPFLTYSGDMRCAPITAYSTGDKYVAYLANNDMGELRNTYPDDARGGLIMQWDVFYTAIQDANILLAEIDKVPGMDELKRSRFKAEAIFMRSLSYFFIVRAFGDVPYYTNAYNEAPLPRTNMVIVLQNCLADLQPLLDDDPGAEVLPWSYSSYSSKGIRASRGSVIALMMHINLWLVQFDAQNKEQYYRNVVSLGEELERNNGAYSLLDINRSSVIFAGGSDEGLFEIAQNINFNEIFMMNAKFSDNVSYSCLNKSMPLFCYSGDYLMTLFPMYEDDARKELWFDEKIYSTSVSSSAPKEIKKFWNIDTYGNGTITSNSGNQIVFRYAGALLLYAEALAALGTNDTKACELLNRVRNRAHASEINTSGSELMDAIFWERCRELIGEGHYYYDLVRTGKVYNRNYCMNPMTRTNFNVGAWTWPIHRNALKNNTQIGLNLFWE
# Key:
# Assay in all cases: glycan array binding signal (z-score within array); higher = stronger binding
# Details in all cases: glycan notation: IUPAC condensed, linker removed
# [1] = biological target: GlcNAc(b1-2)[GlcNAc(b1-4)]Man(a1-3)[GlcNAc(b1-4)][GlcNAc(b1-2)[GlcNAc(b1-6)]Man(a1-6)]Man(b1-4)GlcNAc(b1-4)GlcNAc
# Outline: (§1)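 Columns mapping to the same glycan were averaged after glycan names were converted to IUPAC-condensed notation. The data come from 3228 arrays in the Consortium for Functional Glycomics database, limited to those with an available protein sequence. Binding is reported as a within-array Z-score averaged across arrays of one protein sequence and across linkers.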
# [2] = biological target: GlcNAc(b1-2)[GlcNAc(b1-4)]Man(a1-3)[GlcNAc(b1-4)][GlcNAc(b1-2)[GlcNAc(b1-6)]Man(a1-6)]Man(b1-4)GlcNAc(b1-4)[Fuc(a1-6)]GlcNAc
# Outline: as §1
# [3] = biological target: GlcNAc(b1-2)[GlcNAc(b1-6)]Man(a1-6)[GlcNAc(b1-2)Man(a1-3)]Man(b1-4)GlcNAc(b1-4)GlcNAc
# Outline: as §1
# [4] = biological target: GlcNAc(b1-2)[GlcNAc(b1-6)]Man(a1-6)[GlcNAc(b1-2)Man(a1-3)]Man(b1-4)GlcNAc(b1-4)[Fuc(a1-6)]GlcNAc
# Outline: as §1
# [5] = biological target: GlcNAc(b1-2)[GlcNAc(b1-6)]Man(a1-6)[GlcNAc(b1-4)][GlcNAc(b1-2)Man(a1-3)]Man(b1-4)GlcNAc(b1-4)GlcNAc
# Outline: as §1
# [6] = biological target: GlcNAc(b1-3)Fuc
# Outline: as §1
# [7] = biological target: GlcNAc(b1-3)Gal
# Outline: as §1
# [8] = biological target: GlcNAc(b1-3)Gal(b1-3)GalNAc
# Outline: as §1
# [9] = biological target: GlcNAc(b1-3)Gal(b1-4)Glc
# Outline: as §1
# [10] = biological target: GlcNAc(b1-3)Gal(b1-4)GlcNAc
# Outline: as §1
# [11] = biological target: GlcNAc(b1-3)Gal(b1-4)GlcNAc(b1-2)Man(a1-3)[GlcNAc(b1-3)Gal(b1-4)GlcNAc(b1-2)Man(a1-6)]Man(b1-4)GlcNAc(b1-4)GlcNAc
# Outline: as §1
# [12] = biological target: GlcNAc(b1-3)Gal(b1-4)GlcNAc(b1-2)Man(a1-3)[GlcNAc(b1-3)Gal(b1-4)GlcNAc(b1-2)Man(a1-6)]Man(b1-4)GlcNAc(b1-4)[Fuc(a1-6)]GlcNAc
# Outline: as §1
# [13] = biological target: GlcNAc(b1-3)Gal(b1-4)GlcNAc(b1-2)[GlcNAc(b1-3)Gal(b1-4)GlcNAc(b1-6)]Man(a1-6)[GlcNAc(b1-3)Gal(b1-4)GlcNAc(b1-2)Man(a1-3)]Man(b1-4)GlcNAc(b1-4)GlcNAc
# Outline: as §1
# [14] = biological target: GlcNAc(b1-3)Gal(b1-4)GlcNAc(b1-3)Gal(b1-4)GlcNAc
# Outline: as §1
# [15] = biological target: GlcNAc(b1-3)Gal(b1-4)GlcNAc(b1-3)Gal(b1-4)GlcNAc(b1-2)Man(a1-3)[GlcNAc(b1-3)Gal(b1-4)GlcNAc(b1-3)Gal(b1-4)GlcNAc(b1-2)Man(a1-6)]Man(b1-4)GlcNAc(b1-4)GlcNAc
# Outline: as §1
# [16] = biological target: GlcNAc(b1-3)Gal(b1-4)GlcNAc(b1-3)Gal(b1-4)GlcNAc(b1-2)Man(a1-3)[GlcNAc(b1-3)Gal(b1-4)GlcNAc(b1-3)Gal(b1-4)GlcNAc(b1-2)Man(a1-6)]Man(b1-4)GlcNAc(b1-4)[Fuc(a1-6)]GlcNAc
# Outline: as §1
# [17] = biological target: GlcNAc(b1-3)Gal(b1-4)GlcNAc(b1-3)Gal(b1-4)GlcNAc(b1-2)[GlcNAc(b1-3)Gal(b1-4)GlcNAc(b1-3)Gal(b1-4)GlcNAc(b1-6)]Man(a1-6)[GlcNAc(b1-3)Gal(b1-4)GlcNAc(b1-3)Gal(b1-4)GlcNAc(b1-2)Man(a1-3)]Man(b1-4)GlcNAc(b1-4)[Fuc(a1-6)]GlcNAc
# Outline: as §1
# [18] = biological target: GlcNAc(b1-3)Gal(b1-4)GlcNAc(b1-3)Gal(b1-4)GlcNAc(b1-3)Gal(b1-4)GlcNAc(b1-2)Man(a1-3)[GlcNAc(b1-3)Gal(b1-4)GlcNAc(b1-3)Gal(b1-4)GlcNAc(b1-3)Gal(b1-4)GlcNAc(b1-2)Man(a1-6)]Man(b1-4)GlcNAc(b1-4)GlcNAc
# Outline: as §1
# [19] = biological target: GlcNAc(b1-3)Gal(b1-4)GlcNAc(b1-3)Gal(b1-4)GlcNAc(b1-3)Gal(b1-4)GlcNAc(b1-2)Man(a1-3)[GlcNAc(b1-3)Gal(b1-4)GlcNAc(b1-3)Gal(b1-4)GlcNAc(b1-3)Gal(b1-4)GlcNAc(b1-2)Man(a1-6)]Man(b1-4)GlcNAc(b1-4)[Fuc(a1-6)]GlcNAc
# Outline: as §1
# [20] = biological target: GlcNAc(b1-3)Gal(b1-4)GlcNAc(b1-3)Gal(b1-4)GlcNAc(b1-3)Gal(b1-4)GlcNAc(b1-2)[GlcNAc(b1-3)Gal(b1-4)GlcNAc(b1-3)Gal(b1-4)GlcNAc(b1-3)Gal(b1-4)GlcNAc(b1-6)]Man(a1-6)[GlcNAc(b1-3)Gal(b1-4)GlcNAc(b1-3)Gal(b1-4)GlcNAc(b1-3)Gal(b1-4)GlcNAc(b1-2)Man(a1-3)]Man(b1-4)GlcNAc(b1-4)[Fuc(a1-6)]GlcNAc
# Outline: as §1
# [21] = biological target: GlcNAc(b1-3)Gal(b1-4)GlcNAc(b1-3)Gal(b1-4)GlcNAc(b1-3)Gal(b1-4)GlcNAc(b1-3)Gal(b1-4)GlcNAc(b1-2)Man(a1-3)[GlcNAc(b1-3)Gal(b1-4)GlcNAc(b1-3)Gal(b1-4)GlcNAc(b1-3)Gal(b1-4)GlcNAc(b1-3)Gal(b1-4)GlcNAc(b1-2)Man(a1-6)]Man(b1-4)GlcNAc(b1-4)GlcNAc
# Outline: as §1
# [22] = biological target: GlcNAc(b1-3)Gal(b1-4)GlcNAc(b1-3)Gal(b1-4)GlcNAc(b1-3)Gal(b1-4)GlcNAc(b1-3)Gal(b1-4)GlcNAc(b1-2)Man(a1-3)[GlcNAc(b1-3)Gal(b1-4)GlcNAc(b1-3)Gal(b1-4)GlcNAc(b1-3)Gal(b1-4)GlcNAc(b1-3)Gal(b1-4)GlcNAc(b1-2)Man(a1-6)]Man(b1-4)GlcNAc(b1-4)[Fuc(a1-6)]GlcNAc
# Outline: as §1
# [23] = biological target: GlcNAc(b1-3)Gal(b1-4)GlcNAc(b1-3)Gal(b1-4)GlcNAc(b1-3)Gal(b1-4)GlcNAc(b1-3)Gal(b1-4)GlcNAc(b1-2)[GlcNAc(b1-3)Gal(b1-4)GlcNAc(b1-3)Gal(b1-4)GlcNAc(b1-3)Gal(b1-4)GlcNAc(b1-3)Gal(b1-4)GlcNAc(b1-6)]Man(a1-6)[GlcNAc(b1-3)Gal(b1-4)GlcNAc(b1-3)Gal(b1-4)GlcNAc(b1-3)Gal(b1-4)GlcNAc(b1-3)Gal(b1-4)GlcNAc(b1-2)Man(a1-3)]Man(b1-4)GlcNAc(b1-4)[Fuc(a1-6)]GlcNAc
# Outline: as §1
# [24] = biological target: GlcNAc(b1-3)Gal(b1-4)GlcNAc(b1-3)Gal(b1-4)GlcNAc(b1-3)GalNAc
# Outline: as §1
# [25] = biological target: GlcNAc(b1-3)Gal(b1-4)GlcNAc(b1-3)GalNAc
# Outline: as §1
# [26] = biological target: GlcNAc(b1-3)Gal(b1-4)GlcNAc(b1-3)[GlcNAc(b1-3)Gal(b1-4)GlcNAc(b1-3)]GalNAc
# Outline: as §1
# [27] = biological target: GlcNAc(b1-3)Gal(b1-4)GlcNAc(b1-6)[Gal(b1-3)]GalNAc
# Outline: as §1
# [28] = biological target: GlcNAc(b1-3)Gal(b1-4)GlcNAc(b1-6)[GlcNAc(b1-3)Gal(b1-3)]GalNAc
# Outline: as §1
# [29] = biological target: GlcNAc(b1-3)Gal(b1-4)GlcNAc(b1-6)[GlcNAc(b1-3)]Gal(b1-4)GlcNAc
# Outline: as §1
# [30] = biological target: GlcNAc(b1-3)GalNAc
# Outline: as §1
# [31] = biological target: GlcNAc(b1-3)Man
# Outline: as §1
# [32] = biological target: GlcNAc(b1-3)[GlcNAc(b1-4)][GlcNAc(b1-6)]GlcNAc
# Outline: as §1
# [33] = biological target: GlcNAc(b1-3)[GlcNAc(b1-6)]Gal(b1-4)GlcNAc
# Outline: as §1
# [34] = biological target: GlcNAc(b1-3)[GlcNAc(b1-6)]GalNAc
# Outline: as §1
# [35] = biological target: GlcNAc(b1-4)Gal(b1-4)GlcNAc
# Outline: as §1
# [36] = biological target: GlcNAc(b1-4)GlcNAc
# Outline: as §1
# [37] = biological target: GlcNAc(b1-4)GlcNAc(b1-4)GlcNAc
# Outline: as §1
# [38] = biological target: GlcNAc(b1-4)GlcNAc(b1-4)GlcNAc(b1-4)GlcNAc(b1-4)GlcNAc
# Outline: as §1
binder,measurement,setting,value
B1,glycan array binding signal (z-score),[1],-0.408
same,glycan array binding signal (z-score),[2],-0.581
same,glycan array binding signal (z-score),[3],-0.173
same,glycan array binding signal (z-score),[4],-0.147
same,glycan array binding signal (z-score),[5],-0.252
same,glycan array binding signal (z-score),[6],-0.133
same,glycan array binding signal (z-score),[7],0.956
same,glycan array binding signal (z-score),[8],0.187
same,glycan array binding signal (z-score),[9],-0.199
same,glycan array binding signal (z-score),[10],-0.625
same,glycan array binding signal (z-score),[11],0.159
same,glycan array binding signal (z-score),[12],0.079
same,glycan array binding signal (z-score),[13],0.313
same,glycan array binding signal (z-score),[14],-0.161
same,glycan array binding signal (z-score),[15],0.651
same,glycan array binding signal (z-score),[16],0.722
same,glycan array binding signal (z-score),[17],-0.247
same,glycan array binding signal (z-score),[18],0.043
same,glycan array binding signal (z-score),[19],0.037
same,glycan array binding signal (z-score),[20],0.929
same,glycan array binding signal (z-score),[21],-0.175
same,glycan array binding signal (z-score),[22],0.014
same,glycan array binding signal (z-score),[23],1.38
same,glycan array binding signal (z-score),[24],-0.156
same,glycan array binding signal (z-score),[25],0.059
same,glycan array binding signal (z-score),[26],-0.238
same,glycan array binding signal (z-score),[27],-0.321
same,glycan array binding signal (z-score),[28],-0.094
same,glycan array binding signal (z-score),[29],-0.341
same,glycan array binding signal (z-score),[30],0.238
same,glycan array binding signal (z-score),[31],0.147
same,glycan array binding signal (z-score),[32],-0.214
same,glycan array binding signal (z-score),[33],0.095
same,glycan array binding signal (z-score),[34],-0.177
same,glycan array binding signal (z-score),[35],-0.256
same,glycan array binding signal (z-score),[36],0.058
same,glycan array binding signal (z-score),[37],-0.344
same,glycan array binding signal (z-score),[38],-0.231
